Experimental findings from ChEMBL document CHEMBL5308541, “MAIP: An Open-Source Tool to Enrich High-Throughput Screening Output and Identify Novel, Druglike Molecules with Antimalarial Activity” (ACS Med Chem Lett, 2023) are described below.

Structures are written as SMILES. Hit rate of the full screen: of about 150,000 compounds, about 540 (0.36%) showed an effect of 50% or more. The list shows a part of the results.

This test deals with Plasmodium falciparum. In words: Primary screen in NF54 nanoGlo assay, in single point, at 2uM, 72h; a lower Z score goes with more inhibition. The test is classed as functional, Erythrocyte. To be noted: timepoint 72 hour.
Regarding `C[C@@H](c1ccco1)N(C)S(=O)(=O)N1CCOC(C)(C)C1`, the “% Inhibition” value is reported as -1% and the Z score came to 0.24.
Taken in the same sequence, the figures for `CN1CCN(c2cc(NCCCn3nnc4ccccc43)nc(N)n2)CC1` were -4% and 0.77.
On the same counts, the results for `O=C(Nc1cnc2c(c1)COCC2)c1cc2c(OC(F)(F)F)cccc2[nH]1` are 93% and -14.17.
On the same counts, the results for `CCOC(=O)N1CCC(NCCNc2ccc3ccccc3n2)CC1` are -8% and 1.69.
On to `Cc1cc2nc(N3CCCN(C4CCN(CCc5ccccc5)CC4)CC3)nc(C)c2cc1C`, for which the “% Inhibition” value is given as 0% and the Z score was -0.06.
Taken in the same sequence, the figures for `Nc1ccnc(-c2cccc3[nH]ccc23)c1` were 27% and -5.45.
On the same counts, the results for `COc1ccc(-c2ccc(C(=O)N3CCC4(CC3)CNC(=O)O4)cc2)nn1` are -4% and 0.55.
On the same counts, the results for `Cc1cc(N2CCCN(Cc3cncn3C3CCCCC3)CC2)ccn1` are 4% and -0.7.
Turning to `CCOc1ccc(-c2cccc3cnccc23)cc1CNC`, the “% Inhibition” value is reported as 13% and the Z score is reported as -1.92.
With `CC(C)Oc1cc(N2CCN([C@H]3CCNC3)CC2)ncn1`, the “% Inhibition” value is recorded as -9% and the Z score was found to be 1.87.
Turning to `O=C(Cc1coc2cc(Cl)ccc12)N1CCC[C@H](N2CCNCC2=O)C1`, the “% Inhibition” value is -6% and the Z score was determined as 1.01.
As for `CCNc1ncc(-c2nc(CC3CCN(C)CC3)no2)cn1`, the “% Inhibition” value amounted to 2% and the Z score is recorded as -0.3.
`Cn1cc(-c2ncc(C(=O)N3CC[C@H](N4CCNCC4)C3)s2)cn1`: the “% Inhibition” value was determined as 2% and the Z score is on record as -0.38.
On the same counts, the results for `CC(C)NC1CCN(C[C@]2(O)CCN(Cc3ccccc3)C2)CC1` are 4% and -0.6.
Turning to `COc1ccc2oc(CN[C@H]3CCCO[C@@H]3c3ccncc3)cc2c1`, the “% Inhibition” value is -13% and the Z score came to 2.89.
Taken in the same sequence, the figures for `CN(Cc1cc(-c2cccnc2)no1)C(=O)CN1CCN(c2ncccn2)CC1` were -6% and 1.39.
Taken in the same sequence, the figures for `O=C(N[C@@H](Cc1ccccc1)C(=O)N1CCN(C2CCCC2)CC1)OCc1ccccc1` were 5% and -1.11.
On the same counts, the results for `NS(=O)(=O)c1ccc(CNC(=O)c2cc(C3CC3)nc3ccccc23)s1` are -7% and 1.53.
With `CCOc1ccccc1CN(C(=O)c1ccc(CN2CCCC2)o1)C1CC1`, the “% Inhibition” value amounted to 2% and the Z score is recorded as -0.29.
On the same counts, the results for `CCc1oc2ccccc2c1CNC[C@H](O)c1ccc(Cl)cc1` are 98% and -19.37.
On the same counts, the results for `CN(C[C@H]1CCCN(c2nc(-c3cccnc3)nc3ccccc23)C1)C(=O)OC(C)(C)C` are 2% and -0.3.
On the same counts, the results for `CC1CC(C)C(C(=O)Nc2n[nH]cc2Br)O1` (stereo unspecified) are -6% and 0.84.
Turning to `Cc1ccc(C)c2c(O)cc(CNC[C@H]3CCCN(CCO)C3)nc12`, the “% Inhibition” value worked out at 1% and the Z score is given as -0.17.
With `NC(=O)C1(N2CCCCC2)CCN(c2ncncc2-c2nc(-c3ccccc3)no2)CC1`, the “% Inhibition” value is listed as -3% and the Z score is reported as 0.56.
On the same counts, the results for `COc1cccc(Nc2nc(-c3ccc(Cl)cc3)ncc2C(=O)NCC[C@H]2CCCN2C)c1` are 4% and -0.68.
On the same counts, the results for `CN1CCN(C2(CNc3ncc(F)c(N(C)C)n3)CCCCC2)CC1` are 7% and -1.15.
In the case of `CC(C)(C)OC(=O)N1CCN(S(=O)(=O)c2ccc(C(F)(F)F)cc2)[C@H](C#N)C1`, the “% Inhibition” value is -8% and the Z score came out at 1.27.
On the same counts, the results for `Cc1ccccc1-c1cccc(CN2CCN3CCN(C)C[C@H]3C2)c1` are 0% and -0.01.
Taken in the same sequence, the figures for `COC(C)C(=O)NC(C)COCC(C)C` (stereo unspecified) were 11% and -2.32.
For `C[C@@H](CN1CCOCC1)N1CCC(OC2CCCCC2)CC1`, the “% Inhibition” value is on record as -15% and the Z score is 3.03.
On the same counts, the results for `CC1CCN(c2ccc(Nc3c(C(=O)O)cnc4c(C(F)(F)F)cccc34)cc2)CC1` are 7% and -1.43.
On the same counts, the results for `CCCC[C@H](NCc1ccccc1OCCCN1CCN(C)CC1)c1cccnc1` are 13% and -2.64.
On the same counts, the results for `FC(F)COc1ncnc2c1CCCC2` are 2% and -0.35.
On to `Cc1nccc([C@H]2CCCN(c3ncnc4[nH]ccc34)C2)n1`, for which the “% Inhibition” value is recorded as -5% and the Z score was 1.15.
On the same counts, the results for `OCCN1CCN(C2CCN(c3cc(-c4ncon4)ccn3)CC2)CC1` are -5% and 0.75.
Taken in the same sequence, the figures for `C[C@@H](c1cccc(-c2ccc(C3(O)CCNCC3)cc2)c1)N1CCCC1` were -8% and 1.14.
Taken in the same sequence, the figures for `CCCO[C@@H](C)CNC(=O)c1ccc(C#CC(C)(C)O)cc1` were -3% and 0.5.
Consider `Nc1cncc(-c2ccc3[nH]nc(N)c3c2)c1`, for which the “% Inhibition” value is on record as -1% and the Z score turned out to be 0.17.
As for `Cc1nc(CN(CCN(C)C)C(=O)[C@]2(C)CCc3c(C)c(O)c(C)c(C)c3O2)c[nH]1`, the “% Inhibition” value is on record as -11% and the Z score worked out at 1.98.
Taken in the same sequence, the figures for `COc1ccc(-c2cc(C(=O)NC3CCCC(C)C3C)n[nH]2)cc1S(=O)(=O)N1CCOCC1` (stereo unspecified) were 8% and -1.45.
`O=C(NC1CCN2CCCCC12)N1CC2CN3CCCCC3C2C1` (stereo unspecified): the “% Inhibition” value is on record as -17% and the Z score was found to be 2.99.
Taken in the same sequence, the figures for `CC(C)C(=O)N1CCC[C@H](NCc2cc3ccc(Cl)cc3nc2O)C1` were -4% and 0.77.
On the same counts, the results for `FC(F)(F)CCCN[C@H]1CCCN(CC2CCCCC2)C1` are -8% and 1.3.
Turning to `Cc1ccc(C)c(NC(=O)c2ccc(Nc3nc(-c4ccccc4)c4ccc(Cl)cc4n3)cc2)c1`, the “% Inhibition” value was -7% and the Z score stood at 1.17.
On the same counts, the results for `O=C([C@@H]1NCCc2[nH]cnc21)N1CCN(c2nsc3ccccc23)CC1` are 7% and -1.19.
Taken in the same sequence, the figures for `O=C([C@@H]1CC=CCC1)N1CCC(N2CCC(Oc3nccs3)CC2)CC1` were -1% and 0.23.
On the same counts, the results for `FC(F)(F)c1nc(NC[C@H]2CCN(CCc3ccccc3)C2)c2[nH]cnc2n1` are -1% and 0.24.
Turning to `Cc1c(CNC(=O)Cc2c[nH]c3ccccc23)sc2nc(-c3ccc(F)cc3)cn12`, the “% Inhibition” value was -8% and the Z score is 1.45.
As to `CC(CC1CCCN1C(=O)OC(C)(C)C)Nc1ccc(N2CCN(C)CC2)cc1` (stereo unspecified), the “% Inhibition” value was -2% and the Z score is recorded as 0.41.
On the same counts, the results for `c1cnc2ccc(CN(Cc3cncnc3)[C@H]3CCCNCC3)cc2c1` are -12% and 1.82.
Taken in the same sequence, the figures for `Cc1ccc(NC(=O)c2cc(-c3ccccc3)[nH]n2)c(-c2nc(C3CC3)n[nH]2)c1` were 17% and -2.53.
Taken in the same sequence, the figures for `O=C(NC1CCNCC1O)c1cccc(CN2CCCCCC2)c1` (stereo unspecified) were -4% and 0.75.
With `O=C(CCc1nnc(-c2ccsc2)o1)Nc1cnccc1N1CCCCC1`, the “% Inhibition” value is recorded as -5% and the Z score is listed as 0.93.
Taken in the same sequence, the figures for `CCN1CCC[C@@H]1CN(CCN(C)C)C(=O)c1ccc(-c2cncnc2)cc1F` were 2% and -0.24.
In the case of `O=C(NCCNc1cnccn1)c1ccc(N2CCCCC2)c(S(=O)(=O)N2CCCCC2)c1`, the “% Inhibition” value is reported as -14% and the Z score is reported as 2.15.
On to `CN1CCC(Nc2nc(C(F)F)nc3ccc(Cl)cc23)CC1`, for which the “% Inhibition” value is reported as -11% and the Z score was 2.03.
On the same counts, the results for `OCC1CCCN1CC1CCCN1c1ncnc2scc(-c3ccccc3)c12` (stereo unspecified) are -1% and 0.14.
On the same counts, the results for `Cc1ccc(-n2cc(S(=O)(=O)N3CCCC3)cn2)cc1S(=O)(=O)N1CCCC1` are -4% and 0.63.
On the same counts, the results for `c1cnc(N2CCCN(C3CCN(c4ccc5c(c4)OCO5)CC3)CC2)nc1` are -14% and 2.69.
As for `Fc1cc(CN2C3CCNCC2CC3)ccc1-n1ccnc1` (stereo unspecified), the “% Inhibition” value is given as 8% and the Z score is given as -1.45.
Regarding `CCN(C)C1(CNc2cc(C)nc(N)n2)CCCC1`, the “% Inhibition” value is -8% and the Z score is recorded as 1.63.
Taken in the same sequence, the figures for `c1ccc(N[C@H]2CC[C@H](Nc3nc(-c4cccnc4)nc4c3CCC4)CC2)nc1` were 11% and -1.69.
For `C[C@H]1CCCCN1Cc1cccc(NC(=O)NCc2cccc3[nH]ccc23)c1`, the “% Inhibition” value was 9% and the Z score is recorded as -1.66.
On the same counts, the results for `CC(C)N1CCC(N2CCC[C@H]2C(=O)Nc2cccc(-n3cccn3)c2)CC1` are -4% and 0.86.
Taken in the same sequence, the figures for `Cc1cc(CNc2ccc3[nH]ncc3c2)ccc1-n1cncn1` were -2% and 0.37.
Taken in the same sequence, the figures for `CCCN1CCC(NCc2cc(Br)c3c(c2)OCCCO3)CC1` were 7% and -1.41.
As for `O=C1C[C@H](NCc2cc(O)c3ccccc3n2)CN1Cc1ccc(F)cc1`, the “% Inhibition” value came out at 7% and the Z score is on record as -1.18.
Consider `N#Cc1cccc(Cl)c1N1CCC(O)(CN)CC1`, for which the “% Inhibition” value is -3% and the Z score worked out at 0.43.
Taken in the same sequence, the figures for `CC(C)C(NC1CCOCC1)C(=O)N1CCCC2(CC=CCC2)C1` (stereo unspecified) were -8% and 1.63.
Taken in the same sequence, the figures for `COCCCNC(=O)CN1C[C@H](C)Oc2c(F)cccc21` were -6% and 1.19.
On the same counts, the results for `OCCN1CCN(C2CCN(Cc3cc(C4CCCCC4)no3)CC2)CC1` are -3% and 0.41.
Turning to `N#Cc1ccc(NCC(=O)NCCS(=O)(=O)C(F)(F)F)cc1`, the “% Inhibition” value is listed as -9% and the Z score is recorded as 1.81.
Taken in the same sequence, the figures for `CCNc1ncc(CN2CCN(Cc3cccc(C(F)(F)F)c3)CC2)cn1` were 1% and -0.25.
Taken in the same sequence, the figures for `CC(O)CC1COCCN1CCCN1CCN(C(C)C)CC1` (stereo unspecified) were 2% and -0.47.
Taken in the same sequence, the figures for `FC(F)(F)CCc1ccnc(NCCN2CCNCC2)n1` were 1% and -0.3.
Regarding `Cc1cccc(NC[C@H]2CCN(c3nc(N)c4cnn(C)c4n3)C2)n1`, the “% Inhibition” value was found to be 2% and the Z score is given as -0.39.
Taken in the same sequence, the figures for `CC(C)(C(=O)O)n1cc(NC(=O)Cc2ccc3cn[nH]c3c2)cn1` were -2% and 0.3.
Taken in the same sequence, the figures for `C[C@H]1[C@@H](c2nnc(C=Cc3ccnc4ccccc34)o2)CCCN1C` were 2% and -0.29.
Taken in the same sequence, the figures for `C[C@](O)(COc1ccc2c(c1)CCCNC2=O)C(F)(F)F` were -6% and 0.9.
With `CCN1CCN(CC(C)CNC(=O)C2CCCN(C(=O)c3cc(C)cc(C)c3)C2)CC1` (stereo unspecified), the “% Inhibition” value is -8% and the Z score is on record as 1.49.
Taken in the same sequence, the figures for `C[C@H](O)c1nc2cc(-c3cc(N)nc4[nH]ccc34)ccc2[nH]1` were -1% and 0.16.
With `COc1cc(OC2CC2)ccc1-c1nnc(-c2c(C)nc3ccccn23)o1`, the “% Inhibition” value is listed as -7% and the Z score worked out at 1.59.
On the same counts, the results for `CCc1ccc(CN(C)C(=O)C2CC(c3ccccc3)N3CCCC23)nc1` (stereo unspecified) are -3% and 0.58.

In general, % Inhibition refers to the relative decrease from the control value, in per cent.
